# Source: the RNAGym collection of RNA variant scans (doi:10.7554/elife.90254)
# The source gives no read counts; variants with many changes may rest on few reads.
# B1: LINE1-full (parent)
# chain: UACGUAGGUGGUUUUCCCCUGAUAGUGCUAAGGGGGCCUGGAAGUUUGGACUGGGCAGAGCUCAACACAGCGUGGCAAAGUGGCUGUGGCUAGACUGCCUCUCUGGAUUCCUCGUCACUCAGCAGGGCAUCUCUGAGAGAAAUGCC
# Variants of: B1
# Assay: self-cleavage, relative activity (ratio to wild type); higher = more cleavage; in vitro, sequencing; the parent is a self-cleaving ribozyme
row,Variant,self-cleavage
1,A6U U12C U52A,1.09
2,A50U A77G U108A,1.62
3,A67G A77G U87A,0.08
4,U15C G70C U115C,0.31
5,U26C G35A U47C A67U A129G U134C,0.11
6,U15A U46A G83A A92G A107G,0.04
7,U15C C28G A117U,1.17
8,A22U A69G U87A,0.09
9,G33U A42G A124U,1.08
10,A22G A69G A78G,0
11,U13C U14C A64G,0.2
12,U14C A124G A140G,0.41
13,U9A U26C U81C C113A,1.58
14,U26C C61U A67G,0
15,A22U G82A A141G,1.44
16,U20C U85C C123A,0.29
17,A43G U109A A129G,1.17
18,A57G G83A U132C,0.43
19,U39A A64U U73C U85A C128U U134A,0.03
20,U14C A65G U112C,0.07
21,U9A A69U U143C,0.13
22,U14C U20A A69G U109G,0
23,C28U C95U A138G,0.31
24,U45A U109C U143A,1.03

row,Variant,self-cleavage
1,A6G G35A A65G U73A U102C,0
2,U15C A65G U87A A129G,0.05
3,U73A U100C C111A,2.84
4,U39C A67U A94C,0
5,A2G C38A A64C C71U U81C U109C,0.06
6,U47C U52C G89C,0.08
7,U13C C123A A129U U134A,0.81
8,A42G U52C U87C G89A,0
9,U13A G27A U45G A78U A79U U102C U130A A136U,2.07
10,A42U A77U A141G,1.04
11,G40A A43U U119C U132C,1.62
12,U26A U91A C110U,0.44
13,U52C C56A A77G U87G,0.03
14,U15C A59G A124G G126A,0.27
15,G10A A30G A42G A94G,0
16,U39C C61A A78U,0.05
17,U13C G41A U143A,1.16
18,A30G A69G A124U A138G,1.31
19,U26C A65G U119C A138G,0
20,U5A A30U U132A,1.21
21,U62C A94G A107U,0
22,U1C A50U A64C U115C A142G,0
23,U14C U45C C71U U119A,1.21
24,U39A U115C C131U A136G,1.38

row,Variant,self-cleavage
1,A22G U81A A94U U115C,0.42
2,G34U A59U A67C A78G U134A A140G,0.03
3,U20A G36A U52G C128U,1.24
4,A57G U73A A77U A140G,0.18
5,U29C A92U A129U,0.96
6,U9C C61U A77G A136G,0.26
7,A65G A124G U132C,0.03
8,G4A A50C U87C A94U C95U,0
9,U9C A30U A42U A140G,0.46
10,U9C U20C C66U,0
11,U1C U13C U96C,0.04
12,A22G G82A U85C A124G,0.4
13,A2G A65G U87A,0.13
14,U13C A30G A140G,1.31
15,U39C G48A A138U,0.93
16,U5C G33A C133G A140G,1.15
17,A22G U62C C146U,0.04
18,U13C U104C U143C,1.39
19,U46C G89U U132C,0.05
20,U1C A69G A129G,2
21,U9A U100C U109C,1.15
22,U29C U46C U47C,1.11
23,A42G A78G U115C,2.98
24,U15C U20C U130A,1.44

row,Variant,self-cleavage
1,U13C A30G G36C A64C A65G,0
2,G75A U100C U143C,1.05
3,A57G A129U U134C,1.22
4,A77U U81A C95A,0.11
5,A22G A64G U102C A138G A142G,0
6,U5C U13C A79G A129C A141G,0
7,A6G A124G G139U,0.59
8,A2G U5C U12G U47A A67G,0.35
9,U13C C17G A92U,0.92
10,U87C U96C C110A,0.15
11,U9A U20C A43C C131A A138G,0.38
12,U9C A64G U104A,0.69
13,A2G U14A G60A C118A,0.12
14,U1C A30U A59G A77G,0.11
15,A107U A136G C145U,1.27
16,A22U U115C A129G C145G,2.09
17,A78G U85C U87A,0.12
18,G41A G72U G75A G80C,0.65
19,G8C G27A G54C U119G,0.71
20,U12C U52A A57U A92U U115G,0.11
21,U15C A43U A65U A129G U134A,0
22,U12A U47C U130C,2.45
23,U15C U47G U100A A136G,1.2
24,A43G U130C U134A,0.93

row,Variant,self-cleavage
1,U20C A30G U96A A141U,0.13
2,U15C A57U U62C,0
3,G32A A77G A78G,0.61
4,U45G U46A U62C,0.1
5,C66U A107G U143C,0.07
6,A79G U112A U132C,2.35
7,U9C G83U A94G,0.23
8,U62A U87A U104C,0.02
9,G32A C38U G74A U91C U102C,0.39
10,U12G U13A U85C U100C,0
11,U14A U20C G114A U115C,1.06
12,U12G A59G A67G,0.14
13,A2G U45C U46A U132A,1.08
14,U62A U102C G127A,0.05
15,A107G U119C U130C,1.47
16,U14C U20C A59G A67C U85A A138G,0
17,U15C U39C A79G U96A U108A,0.2
18,U20C G126U A138U,1.69
19,U47C A77G C99A,1.24
20,U15C A50U A94G U112C U115C,1.15
21,A22U U39C U130A,1.24
22,A2G U12C G53U U108C A140G,2
23,A31U U39C A69G G97A U104G,0.1
24,A77G C99U A142G,0.92

row,Variant,self-cleavage
1,U5C A78U G86A U100A U115C,0
2,U1G U14C U29C A136G,0.6
3,A2G U39C C51A A140G,1.2
4,G21A U39A U47C A136G,1.44
5,G10A U73C C110A,1.87
6,U14C G105A U132C A142C,1.29
7,A31G A94G U115C,0.77
8,U13C A43G A67U U100C A140G,0.37
9,A69U U85C U96C U134A,0.03
10,G8U U104C C110U,1.41
11,U47C A77G U134C,1.92
12,U23C A24C U91C,1.84
13,U5A A42G U130C,1.84
14,U46C A78G C128U,0.37
15,A65U U100C U109A A138G A140U,0.28
16,A43G U102C U134C,1.7
17,G21U A77G G86A A94G C99U,0.08
18,A30G A64U A65G A92G,0
19,U12G A24U U104A,1.19
20,A2U A69G G114A,0.41
21,U20C U45A U109C,0.95
22,G4C A30G U39C U87A A142G,0.37
23,A42G U46C A67G G75A G105A U130A,1.41
24,C37A A67G C133A A136G,0.14

row,Variant,self-cleavage
1,U14C U62A A117G,0.1
2,U87C U132C A136G,0.35
3,C76U U119A A142G,1.49
4,U73C A124G U132C,2.45
5,U85C A107G U108A A129U,0
6,G48U A59G A107G,0.33
7,A42G A65G A140G,0
8,U62C U91C U112C,0.09
9,U13C A24G A65G,0
10,G34U A42G U134C U143A,1.09
11,C17U A94G U115A,0.4
12,U5C A31U U115A A136U A141G,1.19
13,U20A A31U A43G U52A G86U,0.09
14,U13C A69U U130A,0.02
15,U14C U15C U46C,0
16,U52G A67G U73A U100C A117U U119A,2.04
17,A24U U52C U62C A67U G80U,0.08
18,A31U A43U U47C A65G U81G,0
19,U12C A42G A67U U87C C123A A136C,0.22
20,U1A U13C U20C A129G U132C,1.78
21,G35U U81A A142C,2.1
22,U23A A30U A140G,0.57
23,A65U A77G U112C,0.26
